Experimental data taken from PubChem BioAssay AID901 (National Center for Advancing Translational Sciences (NCATS), 2007).
Fewer than 10 of roughly 120,000 compounds were called active. The inconclusive results got no clear call from the source; some entries with a clear call stand among them for comparison. The call rests on the fitted dose curve; in most records, active means well fitted curve in the direction sought with a large enough effect in the signal ratio (not every such curve was filed as active); inconclusive means small, poorly fitted or top-dose-only effect, or a change in a side signal; inactive means no such curve, though single readings can be large or run the other way; the % refers to the signal ratio. No potency is given beside an inconclusive call; the fits are too rough.

Molecular target: Inositol monophosphatase 1 (Rattus norvegicus) (UniProt P97697)
Assay: qHTS Assay for Identifying the Cell-Membrane Permeable IMPase Inhibitors;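 further: cells stimulated with carbachol in lithium chloride buffer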;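 on inhibition (IP1 accumulation): plate controls were DMSO basal wells for no effect and reference inhibitor wells for full effect; higher means more IMPase inhibition seen as more IP1 and lower FRET ratio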
Conditions: CHO-M1 cells, HTRF TR-FRET ratio; Potency: IP1 accumulation unless noted; inhibition (IP1 accumulation): at 46.1 µM (top of the series) unless noted

UniProt P97697, sequence (P97697 whole entry, looked up): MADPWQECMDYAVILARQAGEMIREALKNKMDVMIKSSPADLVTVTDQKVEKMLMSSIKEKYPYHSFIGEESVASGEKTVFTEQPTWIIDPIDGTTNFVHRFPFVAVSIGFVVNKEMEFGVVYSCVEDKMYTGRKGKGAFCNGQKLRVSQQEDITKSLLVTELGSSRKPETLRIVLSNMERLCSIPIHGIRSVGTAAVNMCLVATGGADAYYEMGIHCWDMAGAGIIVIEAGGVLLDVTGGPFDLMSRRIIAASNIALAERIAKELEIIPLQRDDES

Row | SMILES | Potency | inhibition (IP1 accumulation)
1 | COc1cccc(CC(NC(C)=O)C(=O)NC2CCN(c3nnnn3-c3ccccc3)CC2)c1 (configuration not stated) | inactive | –
2 | Cn1c(CNc2ccc(Cl)cc2)nnc1SCCN1CCCCC1 | – | inconclusive: 28.9% [phenotype inactive]
3 | Cc1cc(=O)oc2c(CN3CCN(C)CC3)c(O)c(Cl)cc12 | inconclusive [inhibitor, single point] | –
4 | Cc1c(C(=O)N2CCC(C)CC2)sc2ncnc(N(C)c3ccccc3)c12 | inconclusive [inhibitor, single point] | –
5 | Cc1cccc(C)c1NC(=O)N1CCN(C2CCCCC2)CC1 | inactive | –
6 | Cc1ccc2nc(SCCC(=O)O)cc(C)c2c1 | inconclusive [falling, partial curve] | –
7 | O=C(O)c1ccccc1C(=O)NNc1ccc(F)cc1 | inactive | –
8 | Clc1ccc(OCc2nc(-c3ccncc3)no2)c(Br)c1 | – | inconclusive: 2.31% [phenotype inactive]
9 | COc1ccc(C(=O)Nc2ccc(S(=O)(=O)Nc3onc(C)c3C)cc2)cc1 | inactive | –
10 | COC(=O)c1cccc(NC(=O)CN2CCN(Cc3ccccc3)CC2)c1 | inactive | –
11 | CC(NC(=O)CSc1nc2c(c(C(F)(F)F)n1)CCc1ccccc1-2)c1ccccc1 (configuration not stated) | inconclusive [inhibitor, single point] | –
12 | O=c1cc(-c2ccc3c(c2)OCCO3)oc2ccc(Cl)cc12 | inconclusive [inhibitor, single point] | –
13 | O=C(OCc1cc2ccccc2[nH]c1=O)c1ccncc1 | – | inconclusive: -21.6% [phenotype inactive]
14 | Oc1cccc(-c2nc3ccccc3s2)c1 | inactive | –
15 | COc1ccc(-c2cc3nc(-c4ccccc4)cc(C(F)(F)F)n3n2)cc1 | inconclusive [inhibitor, single point] | –
16 | CCOc1ccccc1NC(=O)Cn1cnc2c(cnn2-c2ccc(C)c(C)c2)c1=O | – | inconclusive: -0.722% [phenotype inactive]
17 | N#Cc1c(N)nc(N2CCCC2)c(C#N)c1-c1ccc(Cl)cc1 | inconclusive [inhibitor, partial curve, poor fit] | –
18 | Cc1ccc2nc3c(cc(C(=O)NCC4CCCO4)c(=N)n3C(C)C)c(=O)n2c1 (configuration not stated) | inactive | –
19 | CN(c1ccc(C(=O)Nc2nccs2)cc1)S(=O)(=O)c1ccccc1 | inactive | –
20 | COc1ccc(CNC(=O)CSc2nc(-c3ccc(OC)cc3)cc(C(F)(F)F)n2)cc1 | inconclusive [inhibitor, single point] | –
21 | CCn1c2c(c3cc(Br)ccc31)CCC/C2=N\O | inconclusive [falling, partial curve] | –
22 | COc1ccc(Cl)cc1-c1n[nH]c(=S)o1 | inconclusive [falling, partial curve] | –
23 | CCOC(=O)c1ccc(N=c2sc(C(=O)OC)cc(=O)n2Cc2ccco2)cc1 | inactive | –
24 | O=C(COC(=O)c1cc(-c2ccc(Cl)s2)nc2ccccc12)NCc1ccco1 | inconclusive [inhibitor, partial curve] | –
25 | CSc1nc(-c2ccco2)cc(-c2ccccc2)c1C#N | – | inconclusive: -4.91% [phenotype inactive]
26 | COC(=O)c1cc(NS(=O)(=O)c2ccc(N3CCOCC3)c(NC(C)=O)c2)cc(C(=O)OC)c1 | – | inconclusive: -12.2% [phenotype inactive]

Row | SMILES | Potency | inhibition (IP1 accumulation)
27 | CC1(C)CC(=O)c2cnc(N3CCN(c4ccccc4)CC3)nc2C1 | inconclusive [inhibitor, partial curve] | –
28 | Cc1[nH]c(=O)c(C#N)c2c1CSC(C)(C)C2 | inactive | –
29 | O=C(CNS(=O)(=O)c1ccc2ccccc2c1)OCC(=O)c1ccc(Br)s1 | inconclusive [falling, partial curve] | –
30 | COc1ccc(CNC(=O)c2c(O)c3ccccc3n(C)c2=O)cc1OC | inconclusive [falling, single point] | –
31 | CCCCn1c(=O)n(CC(O)c2ccccc2)c(=O)c2c1ncn2C1CCCC1 (configuration not stated) | inactive | –
32 | COc1ccc(Oc2nccc(-c3ccc(F)cc3)c2C#N)cc1 | inconclusive [falling, single point] | –
33 | N=c1c2c(-c3ccccc3)c(-c3ccccc3)n(Cc3ccco3)c2ncn1Cc1ccccc1 | inactive | –
34 | Cc1cc(C)n(C(=O)CCC(=O)NCc2ccccc2)n1 | inactive | –
35 | Cc1ccc(CNC(=O)CCCn2c(=O)c3ccccc3n(CC(=O)C(C)(C)C)c2=O)cc1 | inconclusive [inhibitor, single point] | –
36 | CS(=O)(=O)Nc1nc2n(n1)C(c1ccccc1)C=C(c1ccc(Br)cc1)N2 (configuration not stated) | inconclusive [inhibitor, single point] | –
37 | CC(=O)N1CCc2c(sc(NC(=O)c3ccc4c(c3)OCCO4)c2C#N)C1 | inconclusive [falling, single point] | –
38 | Cc1cccc(OCC(=O)Nc2ccc(S(=O)(=O)N3CCCC3)cc2)c1 | inactive | –
39 | CCC(C)NC(=O)C(Cc1ccccc1)n1cccc1 (configuration not stated) | – | inconclusive: -11.4% [phenotype inactive]
40 | CN1CCc2c(n(CC(O)CN3C(=O)c4ccccc4S3(=O)=O)c3ccccc23)C1=O (configuration not stated) | – | inconclusive: -12.2% [phenotype inactive]
41 | COc1ccc(C2C(C(=O)OC(C)C)=C(C)N=c3s/c(=C\c4cccs4)c(=O)n32)cc1 (configuration not stated) | – | inconclusive: -16.5% [phenotype inactive]
42 | O=C(Nc1ccc2c(c1)OCO2)C1CCCN1C(=O)Nc1ccccc1F (configuration not stated) | inactive | –
43 | Cn1c(=N)c(S(=O)(=O)c2ccccc2)cc2c(=O)n3ccccc3nc21 | inactive | –
44 | CC1CCCCN1C(=O)CSc1nnc(-c2c[nH]c3ccccc23)o1 (configuration not stated) | – | inconclusive: -8.06% [phenotype inactive]
45 | COc1cccc2cc(C(=O)C3=C(O)C(=O)N(CCN(C)C)C3c3ccc(F)cc3)oc12 (configuration not stated) | inconclusive [inhibitor, partial curve] | –
46 | Nc1nnc(-c2cc3ccccc3oc2=O)s1 | inconclusive [inhibitor, partial curve] | –
47 | O=C(COC(=O)c1ccccc1Nc1ccccc1)NCc1ccccc1 | – | inconclusive: -8.84% [phenotype inactive]
48 | C=CCn1c(-c2csc(-c3ccccc3)n2)n[nH]c1=S | inconclusive [inhibitor, partial curve] | –
49 | Cc1c(Cc2ccccc2)c(=O)oc2c(CN(C)C)c(O)c(Cl)cc12 | inconclusive [inhibitor, partial curve] | –
50 | COc1ccc(N(C(=O)c2ccco2)C(C(=O)NC2CCCC2)c2ccc(N(C)C)cc2)cc1 (configuration not stated) | inactive | –
51 | COc1ccc(C(C#N)N2CCCCC2)cc1OC (configuration not stated) | inactive | –
52 | COc1ccc(-c2nc(N3CCC(C)CC3)[nH]c(=O)c2C#N)cc1 | inconclusive [falling, single point] | –
